# Measured values published in the supplement of paper PMC11417369.
# The list shows a part of the results.
# System: PfAP2-HC AP2 domain (GST-tagged)
# Experiment: gcPBM binding intensity (ln(normalized median fluorescence intensity)); higher = stronger DNA binding
# In short: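 An Agilent 4 × 180k array carrying primer-extended double-stranded 36-bp intergenic genomic probes and negative controls received GST-tagged P. falciparum DNA-binding domains expressed in E. coli, about 25 μg on average, for 1 h. The binding buffer contained 1× PBS, 1% milk, 0.2 mg/ml BSA, 0.5% salmon testes DNA and 0.03% Triton X-100. Binding intensity is the top Masliner-normalised natural-log median intensity across replicate spots of either probe orientation, read after Alexa488 anti-GST antibody staining and a 488 nm scan.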
row,Sequence,gcPBM binding intensity (ln)
1,AAATAAAATTATAACTGTACGTTGTATGAAATAATG [XGTACX_site5462],9.74
2,GTGTACATAGGTATAGCACACACAAATGTAGGTATT [CACACA_site9339],10
3,TCTATAAAGTTCCATACATGCGCCATCATTTATATT [TGCATGCA_site195],10.3
4,GAATACACCACGCACACACACTTGAGAAAAAATAAA [CACACA_site7747],10.3
5,ATTATAATTATTTTGTTGCACTATTTTTGTAGGCCA [GTGCAC_site9734],9.5
6,TAGTTATTTATATACACACACATACAGACAAATAAA [CACACA_site7577],10.8
7,TCTTAGATTATTTATTGTACTTATGCTTAAAAAATT [XGTACX_site3639],9.56
8,GTCCAATAAGGAAGAGTGCAAAAATTAAATAATATA [GTGCAC_site9751],9.61
9,AAAGAAAAAAAAAACACACACACACGCATTCAATAT [CACACA_site6169],10.7
10,ATATATATTTATATATATATATATATATATATGTAT [GTGCAC_negctrl_site220],9.49
11,GAAAAAAAAGAAAAAACACACATATGATATATTTAT [CACACA_site1524],9.64
12,ATATTTTCTTTTTAAAGTACATATTTGATTACAATA [XGTACX_site8414],9.22
13,ATATATATATATATATGTACATATTTTTAATTATAA [XGTACX_site7444],9.73
14,ATAGAATAATATTGTAGTACTAAAAATATTCATTTT [XGTACX_site6447],9.59
15,TCTATATATAAATATAAATATATATATATAATGTTA [TGCATGCA_negctrl_site92],9.36
16,TAAAAAACAAAACAGGTGCTATATAATTTTCATTTT,9.68
17,ATTATAAATTAAAATACACACATATATACATAATAT [CACACA_site7337],9.91
18,TCTTTTTGTTCGTGTACACACATGAAATTTATAAAA [CACACA_site1619],9.78
19,AAGTATATACATATATGTACACATTGTCAGATAGAA [XGTACX_site1236],9.79
20,TTGTTTCTTAAATTATTTATTTTATATTAAAAAAAA [XGTACX_negctrl_site224],9.27
21,AAGAAAATGAAAAAGTAAAAACATATATTAAATATA [TGCATGCA_negctrl_site123],9.54
22,ATTCGTAGTTTTATGAATTAATATAATAAAAATTAA [XGTACX_negctrl_site181],9.51
23,TCGTAGTTACTATGGCAAGAAAATAAACGGTCTTGT [GTGCAC_negctrl_site684],9.73

row,Sequence,gcPBM binding intensity (ln)
1,TTAAATAAAAAAATAACACACATATAAATATATATG [CACACA_site3175],9.7
2,TTACATATTTTTTAACGTACATAAATATATATGTAT [XGTACX_site8406],9.63
3,TTGTAAAAATTAATACATATATATATATATATATAT [CACACA_negctrl_site6],9.65
4,ACTCAAACCTTTAGAGTGCAAAAAAAAAAAAAAAAA [GTGCAC_site9952],8.9
5,AAAGAAATAAGGTGCACACATATACAGATATATATA [CACACA_site4399],10.3
6,ATATATTTGATTTACACACTTACAATGTATATAAAT [CACACA_site2993],9.71
7,CTCTTTTTTTGCAAAAGTACAAATGGGGATATATTT [XGTACX_site5813],9.57
8,GCATTATTTACCACAACACACAAATATTTACCAATC [CACACA_site2669],10.1
9,ACTATATATTTAATATGTACACATATTTCTGTCGAT [XGTACX_site6878],9.94
10,TTCCTAAGAATAATCAGTACACATAAAAAGAACATA [XGTACX_site7861],9.61
11,ATAATTATCATAGGATGTACATATTTATTTTGTATA [XGTACX_site7797],9.7
12,ATATGTTAAATTATTCGTACGTAAAAAAAAATGGAT [XGTACX_site3465],9.68
13,AAAAAGGGTATTATTACACACACGTAAATATTAATA [CACACA_site101],10.1
14,AGATTTATACAAATATGTACACACTAAATATATATT [XGTACX_site864],9.85
15,ATATAGTATTAATTTGCATGTCATGTATTAGGTCGA [TGCATGCA_site540],9.66
16,TATTCATTTATAAGCTGTACACATTAATTTGAGCTA [XGTACX_site3616],9.48
17,ATTAGGATATATTAAAGTACTAATATAATACATTTT [XGTACX_site7386],9.55
18,CTTTTTTTAATATGCACACATATATTTTATATATTA [CACACA_site2077],9.95
19,TTTTATATTTTTTGTGGTACATTTAGAGAACCAAAA [XGTACX_site1695],9.29
20,TGTAAGTTGATATAATGTACATGTTTGATTTTTTTT [XGTACX_site7687],9.64
21,TTTATAAACAAATGAACACACAAACATATATATATA [CACACA_site5713],10.2
22,TTTATTTTATCATTTGCACACGCACCCAGACATAAA [CACACA_site4347],9.9
23,CTATTATAATATTTTACACACCATGTAAGATATATA [CACACA_site7492],9.55

row,Sequence,gcPBM binding intensity (ln)
1,TTTTTTCATTAGAAAACATGCAAATGTTTTTCACTT [TGCATGCA_site127],9.57
2,TAACTAAGGAATAATACACACAGAAATATAGATTTA [CACACA_site6293],9.89
3,TCTATTTTCTTATGAATGCACTAATTTATAAAACGT,9.55
4,CAACAAAAATTATTTACACACAAAAGGCAAGGAAAT [CACACA_site1971],9.94
5,ATTTTAGATGAAAAAGCACACAACATATATATATAT [CACACA_site2295],10.1
6,ATTCTTTTTTTTTGGAAATGTATTTTTATGTTTTGT [TGCATGCA_negctrl_site426],9.66
7,TTGCCCATTTCATTAACACACAAATGTTTATATTCT [CACACA_site4569],10.1
8,TTAACTCAAGAGTGTACACATATATATATATATATA [CACACA_site4334],9.83
9,AATACCCATTTTAGTACACACTTAAAAAATTATTTT [CACACA_site5611],9.6
10,ACGTTGAAGAAATACACATGCATATTCTATATATAT [TGCATGCA_site76],9.7
11,TATATTTTTTAAAAAGCATGCAAAAAATAATGATCA [TGCATGCA_site48],9.45
12,GTATAATATGAACACACACACACACGCAAAAAAAAA [CACACA_site7036],10.5
13,TAATATATATAAACATGTACAAATCAAAAACAAAAG [XGTACX_site4076],10.2
14,CTCTTATGCTAGGAAGTGCAATAGTATGGGTACCAC,9.41
15,TCATTTTATTTTTTCACACACACATATATATATATA [CACACA_site3333],10.2
16,ATTTATTTTTATATAACACACAAAGTATAATATAAC [CACACA_site3582],9.62
17,ATATATATATCGATCTGTACATATATTTATAGACAT [XGTACX_site4236],9.77
18,ATATATTTATATTTATGTACATATCTTTATTTACGT [XGTACX_site6800],9.92
19,TGTAAAACTGAAAAGGGTACATATAAATATATATAT [XGTACX_site69],9.57
20,AAAGAAATACAATGATGTACATTTAAAAAAAATTAA [XGTACX_site4324],9.69
21,ACAAGAAAATATATTTGTACATATATAATTTTATTT [XGTACX_site548],9.64
22,ATTAGTAAGAATCATTGTACATTATAATATGTGGTA [XGTACX_site1341],9.61
23,TTTTTAAAAAAGTAAAGTACAAAAAAAAGGAATATC [XGTACX_site588],10

row,Sequence,gcPBM binding intensity (ln)
1,TGCTTCCTTAGGAATGTACACACATATATAATATGT [CACACA_site8048],10.2
2,CTAAAATACAGACACACACACACATATATATATATA [CACACA_site4150],11
3,ATATGCTTATATTATATATATAAGTCTATATATTTT [XGTACX_negctrl_site349],9.68
4,TTAAAATAGGGCGAAGAAATTTTCTGTAAACATTTG [CACACA_negctrl_site1010],9.46
5,GGGTTTTTAAAATGTAGTACATATGTAAACATCAAA [XGTACX_site1262],9.57
6,ATATATATAAAATGTTGTACATATATATAAATAATA [XGTACX_site1661],9.57
7,AGGTTTTCTTAAATAGTGCATTATAACAAAAATAAA,9.4
8,TCACGTATGTATATTACACACATACATATTATTCAC [CACACA_site4276],9.88
9,CATAAATAAGCTTTAGTGCATTATATTTAAATTTTT,9.55
10,AACATCTCATATCGTACTACACTCATATATATATAT [XGTACX_site170],9.92
11,ATAAAATGAACCTTTTGTACATATATATATATATAT [XGTACX_site4610],9.75
12,ATATTATATATATATAAACACACAAATATTTTTATA [CACACA_site8486],9.71
13,TGAATATTTCTATATACACACATATATATATATATA [CACACA_site3451],9.74
14,TTTAATAATAATAAAAGTACACAAATATAAAGGAAA [XGTACX_site5203],9.77
15,TAAAGTAAAGACATACTTATTTTCCATCCACTTCTT [CACACA_negctrl_site1288],9.72
16,AAACAATAAAAGATTACACACATATATAGCATCTAT [CACACA_site5012],9.97
17,TTTCATTTGTCGTTATGTACTTATTAAATATTATTA [XGTACX_site7709],9.72
18,TCTGTATATTTCGCGCGTACGAACAAATTGATAATT [XGTACX_site7965],9.75
19,ATATATATTTTTATAACACACAATGAAGTACATTAC [CACACA_site8270],9.7
20,ATATAATATGGTATTACACACTGTTAAAAGTATGGC [CACACA_site5190],9.85
